# Test results taken from paper doi:10.1101/2025.09.22.677689.
# Chains of the proteins cited; added tags and fusions are not shown. Residues count along the entry.
# UniProt Q9UEE9: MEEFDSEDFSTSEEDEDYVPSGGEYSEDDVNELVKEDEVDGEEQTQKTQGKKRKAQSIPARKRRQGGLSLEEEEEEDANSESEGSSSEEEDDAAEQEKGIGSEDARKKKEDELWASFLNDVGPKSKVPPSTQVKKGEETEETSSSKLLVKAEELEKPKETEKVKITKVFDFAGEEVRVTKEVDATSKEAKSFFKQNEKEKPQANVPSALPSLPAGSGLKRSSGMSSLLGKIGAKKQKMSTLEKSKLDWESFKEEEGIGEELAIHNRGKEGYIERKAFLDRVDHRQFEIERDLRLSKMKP
# UniProt O43684: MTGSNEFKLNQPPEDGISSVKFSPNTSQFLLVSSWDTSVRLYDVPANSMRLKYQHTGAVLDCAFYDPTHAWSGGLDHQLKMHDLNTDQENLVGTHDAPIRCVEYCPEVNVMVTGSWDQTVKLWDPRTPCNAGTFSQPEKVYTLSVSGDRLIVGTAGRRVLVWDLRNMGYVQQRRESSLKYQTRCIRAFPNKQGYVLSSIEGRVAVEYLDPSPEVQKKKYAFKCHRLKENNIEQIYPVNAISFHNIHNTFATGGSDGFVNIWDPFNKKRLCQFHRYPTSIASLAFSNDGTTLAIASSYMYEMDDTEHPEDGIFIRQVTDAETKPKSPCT
# UniProt Q9ULW0: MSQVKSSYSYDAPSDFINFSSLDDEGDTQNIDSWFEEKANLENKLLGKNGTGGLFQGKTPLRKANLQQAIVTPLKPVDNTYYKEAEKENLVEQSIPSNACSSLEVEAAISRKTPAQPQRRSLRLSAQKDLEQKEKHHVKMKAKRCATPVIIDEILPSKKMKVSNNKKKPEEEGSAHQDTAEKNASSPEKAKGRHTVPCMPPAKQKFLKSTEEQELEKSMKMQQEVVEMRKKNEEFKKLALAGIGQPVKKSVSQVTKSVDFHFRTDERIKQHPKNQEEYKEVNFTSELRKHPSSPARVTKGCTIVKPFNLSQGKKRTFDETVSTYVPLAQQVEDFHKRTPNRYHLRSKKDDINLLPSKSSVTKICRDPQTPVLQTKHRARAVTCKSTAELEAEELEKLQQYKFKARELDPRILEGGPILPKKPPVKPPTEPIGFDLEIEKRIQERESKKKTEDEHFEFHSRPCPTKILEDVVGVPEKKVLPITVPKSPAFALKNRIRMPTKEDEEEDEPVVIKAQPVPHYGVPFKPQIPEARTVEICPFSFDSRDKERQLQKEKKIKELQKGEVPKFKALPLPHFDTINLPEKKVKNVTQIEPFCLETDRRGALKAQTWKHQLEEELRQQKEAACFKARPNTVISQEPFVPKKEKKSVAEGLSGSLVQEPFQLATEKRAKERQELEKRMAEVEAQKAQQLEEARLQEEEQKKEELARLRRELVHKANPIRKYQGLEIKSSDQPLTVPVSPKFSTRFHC
# UniProt Q96GD4: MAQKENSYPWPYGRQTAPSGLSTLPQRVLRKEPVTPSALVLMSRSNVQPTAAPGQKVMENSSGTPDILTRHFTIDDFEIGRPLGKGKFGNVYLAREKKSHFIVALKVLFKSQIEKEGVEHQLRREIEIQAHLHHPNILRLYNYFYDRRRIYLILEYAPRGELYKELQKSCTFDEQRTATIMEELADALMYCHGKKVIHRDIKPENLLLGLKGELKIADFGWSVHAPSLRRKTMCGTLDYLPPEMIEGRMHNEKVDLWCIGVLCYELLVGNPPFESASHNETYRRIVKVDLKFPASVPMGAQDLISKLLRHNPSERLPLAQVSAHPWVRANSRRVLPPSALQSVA
# UniProt Q9NQS7: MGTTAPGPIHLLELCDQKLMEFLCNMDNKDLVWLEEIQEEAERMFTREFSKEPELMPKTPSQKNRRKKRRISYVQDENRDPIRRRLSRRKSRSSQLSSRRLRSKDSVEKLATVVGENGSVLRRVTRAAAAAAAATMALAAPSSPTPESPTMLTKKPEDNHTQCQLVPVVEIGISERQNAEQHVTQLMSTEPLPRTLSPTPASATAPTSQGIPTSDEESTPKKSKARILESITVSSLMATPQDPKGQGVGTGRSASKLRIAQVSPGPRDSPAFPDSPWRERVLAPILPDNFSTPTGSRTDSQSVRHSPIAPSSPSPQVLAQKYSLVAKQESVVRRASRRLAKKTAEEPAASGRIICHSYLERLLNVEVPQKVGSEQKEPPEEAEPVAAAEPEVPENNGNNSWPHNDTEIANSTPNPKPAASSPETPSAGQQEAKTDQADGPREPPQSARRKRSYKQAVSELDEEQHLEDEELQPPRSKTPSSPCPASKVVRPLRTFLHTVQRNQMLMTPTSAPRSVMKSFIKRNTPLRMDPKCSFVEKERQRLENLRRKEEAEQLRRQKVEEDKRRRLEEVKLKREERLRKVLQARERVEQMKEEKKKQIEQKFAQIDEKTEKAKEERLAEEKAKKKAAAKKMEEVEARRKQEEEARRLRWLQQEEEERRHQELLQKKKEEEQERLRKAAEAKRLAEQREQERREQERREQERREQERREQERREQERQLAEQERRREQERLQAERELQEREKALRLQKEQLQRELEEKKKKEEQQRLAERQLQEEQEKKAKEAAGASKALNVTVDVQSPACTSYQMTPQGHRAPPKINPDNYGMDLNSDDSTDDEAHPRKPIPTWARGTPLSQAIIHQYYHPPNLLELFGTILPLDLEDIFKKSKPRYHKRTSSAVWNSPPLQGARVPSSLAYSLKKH
# UniProt Q14974: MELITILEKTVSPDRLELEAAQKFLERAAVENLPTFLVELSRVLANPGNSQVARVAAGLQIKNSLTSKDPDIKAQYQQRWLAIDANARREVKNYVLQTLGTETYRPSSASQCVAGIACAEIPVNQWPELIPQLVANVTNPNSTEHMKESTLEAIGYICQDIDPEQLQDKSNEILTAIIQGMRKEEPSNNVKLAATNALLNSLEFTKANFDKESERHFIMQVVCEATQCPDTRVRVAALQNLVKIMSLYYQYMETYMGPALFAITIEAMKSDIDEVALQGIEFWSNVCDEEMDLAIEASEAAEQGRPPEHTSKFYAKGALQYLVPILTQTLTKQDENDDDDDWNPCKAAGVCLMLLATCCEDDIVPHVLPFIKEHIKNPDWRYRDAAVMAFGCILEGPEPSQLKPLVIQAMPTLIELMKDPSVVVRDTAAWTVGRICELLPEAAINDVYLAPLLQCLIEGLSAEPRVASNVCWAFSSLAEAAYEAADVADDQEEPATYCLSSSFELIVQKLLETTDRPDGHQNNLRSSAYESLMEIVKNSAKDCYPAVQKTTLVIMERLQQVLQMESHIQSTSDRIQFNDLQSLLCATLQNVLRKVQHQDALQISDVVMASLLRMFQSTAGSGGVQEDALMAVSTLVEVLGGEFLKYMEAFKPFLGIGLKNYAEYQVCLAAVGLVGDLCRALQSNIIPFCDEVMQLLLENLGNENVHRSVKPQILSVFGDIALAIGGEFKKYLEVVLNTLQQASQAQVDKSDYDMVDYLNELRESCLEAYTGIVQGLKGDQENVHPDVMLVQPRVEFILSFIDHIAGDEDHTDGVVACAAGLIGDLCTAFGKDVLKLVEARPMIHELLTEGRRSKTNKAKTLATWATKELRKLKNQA
# UniProt O88271, residues 1-150: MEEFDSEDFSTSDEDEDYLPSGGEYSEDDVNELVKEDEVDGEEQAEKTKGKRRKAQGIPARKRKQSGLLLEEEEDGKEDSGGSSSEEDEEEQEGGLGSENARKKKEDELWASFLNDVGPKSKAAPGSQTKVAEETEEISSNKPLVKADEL
# These are yes or no findings as the source states them, for the method shown. For part of these data: Binding seen in cells or lysates may run through a third protein. Some binding calls cover weakened binding; strength is not graded here.
# Target: CFDP1 (endogenous, mitotic HeLa cells) (human (endogenous in HeLa)) (UniProt Q9UEE9)
# Assay: co-IP; anti-CFDP1 antibody (mouse IgG as control), cytosolic and chromatin extracts of mitotic HeLa cells, overnight at 4°C, Dynabeads Protein G, wash with 250 mM NaCl, 0.1% NP40; immunoblot
row,Molecule,binding
1,"BUB3 (endogenous, mitotic HeLa cells) (from UniProt O43684 1-328)",binds
2,"TPX2 (endogenous, mitotic HeLa cells) (from UniProt Q9ULW0 1-747)",binds
3,"Aurora A (endogenous, mitotic HeLa cells) (enzyme, UniProt O14965 1-403) MDRSKENCISGPVKATAPVGGPKRVLVTQQFPCQNPLPVNSGQAQRVLCPSNSSQRIPLQAQKLVSSHKPVQNQKQKQLQATSVPHPVSRPLNNTQKSKQPLPSAPENNPEEELASKQKNEESKKRQWALEDFEIGRPLGKGKFGNVYLAREKQSKFILALKVLFKAQLEKAGVEHQLRREVEIQSHLRHPNILRLYGYFHDATRVYLILEYAPLGTVYRELQKLSKFDEQRTATYITELANALSYCHSKRVIHRDIKPENLLLGSAGELKIADFGWSVHAPSSRRTTLCGTLDYLPPEMIEGRMHDEKVDLWSLGVLCYEFLVGKPPFEANTYQETYKRISRVEFTFPDFVTEGARDLISRLLKHNPSQRPMLREVLEHPWITANSSKPSNCQNKESASKQS",no binding
4,"MAD1 (endogenous, mitotic HeLa cells) (protein, UniProt Q9Y6D9 1-718) MEDLGENTMVLSTLRSLNNFISQRVEGGSGLDISTSAPGSLQMQYQQSMQLEERAEQIRSKSHLIQVEREKMQMELSHKRARVELERAASTSARNYEREVDRNQELLTRIRQLQEREAGAEEKMQEQLERNRQCQQNLDAASKRLREKEDSLAQAGETINALKGRISELQWSVMDQEMRVKRLESEKQELQEQLDLQHKKCQEANQKIQELQASQEARADHEQQIKDLEQKLSLQEQDAAIVKNMKSELVRLPRLERELKQLREESAHLREMRETNGLLQEELEGLQRKLGRQEKMQETLVGLELENERLLAKLQSWERLDQTMGLSIRTPEDLSRFVVELQQRELALKDKNSAVTSSARGLEKARQQLQEELRQVSGQLLEERKKRETHEALARRLQKRVLLLTKERDGMRAILGSYDSELTPAEYSPQLTRRMREAEDMVQKVHSHSAEMEAQLSQALEELGGQKQRADMLEMELKMLKSQSSSAEQSFLFSREEADTLRLKVEELEGERSRLEEEKRMLEAQLERRALQGDYDQSRTKVLHMSLNPTSVARQRLREDHSQLQAECERLRGLLRAMERGGTVPADLEAAAASLPSSKEVAELKKQVESAELKNQRLKEVFQTKIQEFRKACYTLTGYQIDITTENQYRLTSLYAEHPGDCLIFKATSPSGSKMQLLETEFSHTVGELIEVHLRRQDSIPAFLSSLTLELFSRQTVA",binds

# More lines, now with the values ahead:
row,binding,Molecule
1,binds,"Aurora B kinase (endogenous, mitotic HeLa cells) (from UniProt Q96GD4 1-344) (enzyme)"
2,binds,"INCENP (endogenous, mitotic HeLa cells) (from UniProt Q9NQS7 1-918)"
3,binds,"importin β (endogenous, mitotic HeLa cells) (from UniProt Q14974 1-876)"
4,no binding,"phospho Threonine 288 Aurora A (endogenous, mitotic HeLa cells) (enzyme, UniProt O14965 1-403, phosphothreonine at 288) MDRSKENCISGPVKATAPVGGPKRVLVTQQFPCQNPLPVNSGQAQRVLCPSNSSQRIPLQAQKLVSSHKPVQNQKQKQLQATSVPHPVSRPLNNTQKSKQPLPSAPENNPEEELASKQKNEESKKRQWALEDFEIGRPLGKGKFGNVYLAREKQSKFILALKVLFKAQLEKAGVEHQLRREVEIQSHLRHPNILRLYGYFHDATRVYLILEYAPLGTVYRELQKLSKFDEQRTATYITELANALSYCHSKRVIHRDIKPENLLLGSAGELKIADFGWSVHAPSSRRTTLCGTLDYLPPEMIEGRMHDEKVDLWSLGVLCYEFLVGKPPFEANTYQETYKRISRVEFTFPDFVTEGARDLISRLLKHNPSQRPMLREVLEHPWITANSSKPSNCQNKESASKQS"

# Target: GST-TPX2 NLS fusion protein (mouse TPX2 amino acids 302-322) (mouse) (UniProt A2APB8)
# Assay: pull-down; GST-TPX2 NLS immobilized on magnetic glutathione particles, incubated with CFDP1 proteins in transfer buffer (20 mM Hepes pH 7.4, 110 mM potassium acetate, 2 mM magnesium acetate, 20% glycerol), 1 h at 4°C; immunoblot; both purified
row,binding,Molecule
1,binds weakly,"CFDP1 acidic N-terminal fragment (aa 1-150), HIS tagged (from UniProt O88271 1-150) (domain or fragment)"
